According to PubChem BioAssay AID1347041 (National Center for Advancing Translational Sciences (NCATS), 2019):
Several values for one entry are separate records, joined by “and”; a condition that tells them apart may be missing. Equal values may be shown once. Hit rate of the full screen: of about 480,000 compounds, about 740 (0.15%) were called active. The shares of active, inactive and inconclusive entries below differ from those in the screen. Rule as the data show it: active = activity change below about -30%; inconclusive = mostly about -25% to -30%; inactive = weaker than that. Some compounds were tested as several samples or in several runs, with calls that do not always agree.
Also: values are at about 110 or 230 µM.

These molecules were tested against L-lactate dehydrogenase A chain (Homo sapiens) (UniProt P00338) (assay: qHTS assay for inhibitors of human lactate dehydrogenase). Details: purified LDHA, NADH/diaphorase-resazurin fluorescence; stronger effect = lower value.
Source text: LDH is a key glycolytic enzyme that catalyzes the final step in the glycolytic pathway, reducing pyruvate to lactate and regenerating NAD+ equivalents necessary for continued glycolysis. LDHA has been linked to the carcinogenesis and malignancy in numerous forms of cancers and many other diseases. Consequently, both pharma and academia have invested in significant research efforts to identify small molecule therapeutics. Such attempts have been stalled or abandoned due to limited success in discovering potent and drug-like inhibitors that can be utilized to validate LDHA in vivo as a drug target, a necessary step toward advancing such a molecule towards the clinic Towards this goal we designed and performed a quantitative high-throughput screening (qHTS) campaign to discover novel compounds that are potent inhibitors of LDHA enzyme activity and cancer cell line growth.
The assay was optimized to 1536-well plates. Briefly, 3 µL of human lactate dehydrogenase 5 (#A38558H, Meridian Life Science, Inc., Memphis, TN) in LDH assay buffer (200 mM Tris HCl pH 7.4, 100 microM EDTA and 0.01% Tween-20) was added to a black solid bottom 1536-well assay plate (Greiner Bio-One) using a BioRAPTR FRD dispenser (Beckman Coulter, Brea, CA). A 1536-well pintool dispenser outfitted with 20 nL pins (Wako Automation, San Diego, CA) was used to transfer 23 nL of DMSO-solubilized compound (both library and vehicle controls) to each 1536-well assay plate. Following compound transfer, 1 µL of substrate solution containing NADH and sodium pyruvate (Sigma-Aldrich, St. Louis, MO) in LDH assay buffer was dispensed via BioRAPTR FRD to initiate the reaction. Final concentrations in the 4 microL reaction volume were 2 nM LDHA enzyme, 0.06 mM NADH and 0.2 mM sodium pyruvate. Following a 5 minute incubation period at room temperature, 1 µL of detection reagent (C. kluyveri diaphorase (Sigma-Aldrich) and resazurin sodium salt (Sigma-Aldrich) in LDH assay buffer) was added to a total volume of 5 µL. Final concentrations of detection reagents were 0.133 mg/mL diaphorase and 37 µM resazurin. Plates were immediately transferred to a ViewLux microplate imager (PerkinElmer, Waltham, MA), and any resulting resorufin fluorescence was measured (ex540, em590 nm) at 0 and 20 minutes. Fluorescence was normalized using enzyme-free and DMSO-treated control wells on each plate.
With CCN(CCNCC(O)COCc1ccc(Cl)cc1)c1cccc(C)c1 (stereo not drawn) the activity change was inconclusive: -25.2%.
With COC(=O)Cn1c(Br)nc2c1c(=O)n(C)c(=O)n2C the activity change was active: -35.3%.
Cc1ccc(OCCN2CCN(C)CC2)c([N+](=O)[O-])c1 was tested, and the activity change was inconclusive: -27.3%.
With CCN(CC)CCNS(=O)(=O)c1ccc(OC)c(Br)c1 the activity change was inconclusive: -26.5%.
For O=C(NC(=S)Nc1cc(Cl)ccc1N1CCOCC1)c1ccc(-c2cccc(Cl)c2)o1, the activity change was inactive: -9.12%.
For CCCOc1ccc(C(CC(=O)O)NC(=O)c2ccccc2F)cc1 (stereo not drawn), the activity change was inactive: 1.71%.
Cc1ccc(C(c2ccccc2)c2c(C)[nH]c3ccccc23)s1 (stereo not drawn) was tested, and the activity change was inconclusive: -25.9%.
For Cc1ccc(/C=C/C(=O)Nc2ccc(S(N)(=O)=O)cc2)o1, the activity change was inactive: -3.29% and inactive: -10.3%.
For C=CCOc1c(Cl)cc(CNc2ccc(N(C)C)cc2)cc1OC, the activity change was inactive: 39.4%.
With CCC(C(=O)O)N1C(=O)/C(=C/C(C)=C/c2ccccc2)SC1=S (stereo not drawn) the activity change was inconclusive: -26.1%.
In the case of O=C(CCC(=O)OCc1ccc(Br)cc1)Nc1ccc2c(c1)oc1ccccc12, the activity change is reported as inconclusive: -25.5%.
For O=C(Oc1ccccc1)N1CCN(c2ccccc2F)CC1, the activity change was inactive: 4.02%.
With CCOc1cc(CN2CCN(C(=O)CC(C)C)CC2)ccc1OC the activity change was inconclusive: -28.2%.
For COc1ccc(-c2noc(CN3CCCC(C(=O)Nc4ccc(-c5ccno5)cc4)C3)n2)cc1OC (stereo not drawn), the activity change was inactive: 2.93%.
COc1ccccc1CNC(=O)c1ccccc1C(=O)c1cccs1 was tested, and the activity change was inconclusive: -28.5%.
For C=CCN1C(=O)COc2ccc(NC(=O)c3cc(=O)c4cc(Cl)ccc4o3)cc21, the activity change was inconclusive: -25.5%.
COc1ccc(S(=O)(=O)N=C2C=C(C)C(=O)C(C)=C2)cc1 was tested, and the activity change was inactive: 21.4%.
With Cc1cc(Nc2ccccc2)n2nc(Cc3ccc(Cl)cc3)nc2n1 the activity change was active: -32.3%.
CC[N+]1(CC)CC2CCC(C)(C1)C2(C)C (stereo not drawn) was tested, and the activity change was inconclusive: -25.1%.
For COc1ccc(CC(=O)NC(C)c2nnc(SCC(=O)c3ccc(Cl)cc3)n2C)cc1 (stereo not drawn), the activity change was inconclusive: -25%.
With CC1CC(C)(C)N(C(=O)CN2CCN(C)CC2)c2ccccc21 (stereo not drawn) the activity change was active: -34.8%.
With COC(=O)CCNC(=O)C(c1ccccc1)c1ccccc1 the activity change was inactive: 3.92%.
For CC(=O)N1N=C(c2ccc3c(c2)OCO3)CC1c1ccc2nccnc2c1 (stereo not drawn), the activity change was inconclusive: -29.5%.
CCN1CCN(c2cc(C(=O)O)c3cc(NC(=O)C(C)C)ccc3n2)CC1 was tested, and the activity change was inactive: -18.6%.
In the case of N=C1/C(=C/c2cccs2)C(=O)N=C2SN=C(SCc3ccccc3)N12, the activity change is reported as inactive: -17.9%.
CC(C(=O)Nc1ccc2c(c1)OCO2)N(C)CC(=O)Nc1ccc(Cl)cc1 (stereo not drawn) was tested, and the activity change was inconclusive: -26.7%.
With Cc1ccc(NC(=O)c2cnc(NCc3ccc4c(c3)OCO4)nc2C)c(C)c1 the activity change was inconclusive: -26.5%.
COc1ccc(CNC(=O)c2ccc(NC(=O)N3CCSc4ncccc43)cc2)cc1 was tested, and the activity change was inactive: 0.513%.
CC(Cc1ccco1)NC(=O)c1ccc(Cl)c(S(C)(=O)=O)c1 (stereo not drawn) was tested, and the activity change was active: -37.2%.
In the case of CSc1ccc(/C=N/NC(=O)c2ccc(C)c(C)c2)cc1, the activity change is reported as active: -48.4%.
COC(=O)c1[nH]c(C)c(/C(O)=C2\C(=O)C(=O)N(CCCn3ccnc3)C2c2cccc(OC)c2)c1C (stereo not drawn) was tested, and the activity change was active: -39.9%.
In the case of Cn1cnc2c1c(=O)n(Cc1cccc(Cl)c1)c(=O)n2C, the activity change is reported as active: -32.4%.
In the case of Cc1ccc(OC(C)C(=O)NCCc2c[nH]c3ccccc23)cc1 (stereo not drawn), the activity change is reported as inconclusive: -27%.
For CSc1nn(Cc2cccc(Cl)c2)c(N(C(C)=O)C(C)=O)c1S(=O)(=O)c1ccccc1, the activity change was inconclusive: -25.5%.
In the case of O=C(Cn1c(SCC(=O)Nc2ccc(F)cc2)nc2ccccc21)NCc1ccccc1Cl, the activity change is reported as active: -32.4%.
In the case of CCN(Cc1cccs1)C(=O)NC(C)c1cccc(Br)c1 (stereo not drawn), the activity change is reported as inactive: -23.4%.
In the case of CCOC(=O)c1cn[nH]c1S(=O)(=O)N1CCCCCCC1, the activity change is reported as inconclusive: -28.6%.
In the case of COP(=O)(OC)c1nc(Cc2ccc(Cl)cc2)oc1NCc1ccc2c(c1)OCO2, the activity change is reported as inactive: -0.274%.
In the case of N#CCOc1nc(N2CCOCC2)nc(N2CCOCC2)n1, the activity change is reported as active: -30.7%.
With COc1cc(OC)cc(C(=O)N2CCC(N3CCN(c4ccccc4OC)CC3)CC2)c1 the activity change was inconclusive: -27.9%.
COc1cc(S(=O)(=O)NCCN2CCOCC2)ccc1-n1cnnn1 was tested, and the activity change was inconclusive: -25.7%.
COc1cccc(OC)c1C(=O)Nc1c(C(=O)N2CCN(Cc3ccccc3)CC2)oc2ccccc12 was tested, and the activity change was inconclusive: -28%.
For O=C(Nc1nc(-c2ccc3ccccc3c2)cs1)C1CCN(S(=O)(=O)c2cccs2)CC1, the activity change was active: -30.5%.
In the case of N#Cc1cccc(COC(=O)c2ccccn2)c1, the activity change is reported as inconclusive: -26.4%.
With Cc1cc2nc(/C(C#N)=C/c3coc4ccccc4c3=O)[nH]c2cc1C the activity change was inconclusive: -27.7%.
COc1ccccc1/C=C/C(=O)OCCN1CCOCC1 was tested, and the activity change was inactive: -6.84%.
O=C(c1cccc(F)c1)N1CCN(Cc2cc(=O)n3ccsc3n2)CC1 was tested, and the activity change was inconclusive: -26.7%.
In the case of CC(C)c1ccccc1NC(=O)c1ccc2ncsc2c1, the activity change is reported as inconclusive: -26.1%.
With COc1ccc(-n2nc(C)c3c2NC(=O)CC3c2ccc(O)c(OC)c2)cc1 (stereo not drawn) the activity change was inconclusive: -27.4%.
CC(=O)c1c(C)[nH]c(C(=O)CSc2cc(Cl)ccc2Cl)c1C was tested, and the activity change was inactive: 2.97%.
Brc1cccc[n+]1CCCC[n+]1ccccc1Br was tested, and the activity change was active: -61.6%.
For Cc1cc(Br)cc2c(C(=O)NC3CCCCC3)cc(-c3ccccc3)nc12, the activity change was inactive: -8.85%.
CS(=O)(=O)N(CC(=O)N1CCOCC1)c1cccc(Cl)c1Cl was tested, and the activity change was inconclusive: -27.7%.
In the case of CNc1oc(-c2ccccc2OC)nc1S(=O)(=O)c1ccc2c(c1)OCCO2, the activity change is reported as inconclusive: -26.9%.
CC(C)c1ccc(C2C(C#N)=C(N)Oc3c2ccc2ccccc32)cc1 (stereo not drawn) was tested, and the activity change was inconclusive: -28.7%.
For Cn1c(-c2ccccc2)csc1=N, the activity change was active: -49.2%.
For COc1ccc(NC(=S)NC(C)C(c2ccccc2)N2CCOCC2)cc1 (stereo not drawn), the activity change was inactive: -3.16%.
For CCCN(C(=O)c1ccc([N+](=O)[O-])c(C)c1)c1c(N)n(Cc2ccccc2)c(=O)[nH]c1=O, the activity change was inconclusive: -25.3%.
For O=C(COc1cccc2ccccc12)Nc1ccc(Cl)cc1C(=O)O, the activity change was inconclusive: -25.8%.
For CN(C)S(=O)(=O)c1cccc(C(=O)OCC(=O)Nc2cc(C(F)(F)F)cc(C(F)(F)F)c2)c1, the activity change was inconclusive: -25.1%.
CCOCCCNC(=O)Cn1nc(C)c2ccccc2c1=O was tested, and the activity change was inconclusive: -26.1%.
With Cn1c(=O)c2sccc2n(CC(=O)NCC2CCCO2)c1=O (stereo not drawn) the activity change was active: -40.6%.
With CCCOc1c(Cl)cc(C(=O)Nc2nnc(CC)s2)cc1OC the activity change was inconclusive: -27%.
With COc1ccc(Cc2nnc(SC(C)c3nc4ccccc4c(=O)[nH]3)n2N)cc1 (stereo not drawn) the activity change was inactive: 5.06%.
With C[C@H]1CN([C@@H](C)CO)C(=O)CCCn2nncc2CO[C@H]1CN(C)C(=O)c1ccc2ccn(C)c2c1 the activity change was inconclusive: -27.1%.
COc1ccc(CN(C)CCc2ccccn2)c(OC)c1OC was tested, and the activity change was inconclusive: -25.6%.
Cc1ccc(C(=O)NC(NC(=S)Nc2ccc(S(N)(=O)=O)cc2)C(Cl)(Cl)Cl)cc1 (stereo not drawn) was tested, and the activity change was active: -34.5%.
In the case of Cc1cc(C)cc(Nc2c3c(nc4ccccc24)CCC3)c1, the activity change is reported as inconclusive: -27.1%.
With CCN(CC)c1ccc(S(=O)(=O)N2CCOCC2)cc1NC(=O)CN1CCc2ccccc2C1 the activity change was inactive: -1.17%.
CN(C)CCCNCC(=O)Nc1ccccc1N1CCOCC1 was tested, and the activity change was active: -32.4%.
In the case of Cc1ccc(-c2csc(Nc3c(C)cccc3C)n2)cc1, the activity change is reported as inconclusive: -26.6%.
For COc1ccc(C(C)=O)cc1CO/N=C/c1ccc(OC(F)F)cc1, the activity change was inconclusive: -27.2%.
CN(C)CCCNS(=O)(=O)c1ccc(N2CCN(Cc3ccc4c(c3)OCO4)CC2)c([N+](=O)[O-])c1 was tested, and the activity change was inconclusive: -27.3%.
For COc1ccc(S(=O)(=O)N(C)[C@H]2C[C@H]3c4cc(N5CCN(C)CC5)ccc4CCN3C(=O)[C@H]2[C@H](C)O)cc1, the activity change was inconclusive: -28.7%.
Cc1ccc(CN(C)CC(=O)NC(=O)NCc2ccco2)cc1 was tested, and the activity change was inconclusive: -27%.
In the case of COc1ccc(Oc2coc3cc(OC(=O)c4ccc5c(c4)OCO5)ccc3c2=O)cc1, the activity change is reported as inconclusive: -26.6%.
CCN(CC)CCN(C)C1CCC(c2ccccc2)CC1 (stereo not drawn) was tested, and the activity change was inconclusive: -26.3%.
For Cc1cc(C)n(Cc2ccc(C(=O)N/N=C/c3ccc(-c4ccc([N+](=O)[O-])cc4)o3)o2)n1, the activity change was active: -65.3%.
For CCC/C(=C1/c2ccccc2C(=O)N1c1ccccc1)c1ccc(O[C@@H]2CCCCO2)cc1, the activity change was inactive: -0.201%.
In the case of CCn1c(CNc2nc3ccccc3n2C(C)C)nc2ccccc21, the activity change is reported as inconclusive: -27.5%.
In the case of CCOC(=O)c1ccc(NC(=O)Cn2nnc(-c3ccccc3C)n2)cc1, the activity change is reported as inactive: -4.89%.
With CCCc1cc(C(=O)N2CCCC2c2cccc(C)c2)no1 (stereo not drawn) the activity change was inconclusive: -28.9%.
With Cc1ccc(OCCn2cc(C(=O)C3CC3)c3ccccc32)cc1 the activity change was inconclusive: -25.8%.
With O=C(CCNC(=O)NCc1nc2c(cnn2-c2ccccc2)c(=O)[nH]1)NCc1ccccc1 the activity change was inactive: 1.19%.
For CCOc1ccc(OCCn2ccnc2)cc1, the activity change was inconclusive: -25.2%.
With CCOc1ccccc1NC(=O)CSc1nnc(-n2nc(C)cc2C)n1N the activity change was inconclusive: -27.9%.
With Cc1ccc(SC(C)C(=O)NC2CCCC2)cc1C (stereo not drawn) the activity change was inactive: 9.56%.
O=C(NCCNC(=O)c1cc2ccccc2[nH]1)C(=O)NC1CC1 was tested, and the activity change was inconclusive: -27.3%.
